The whole screen tested about 350,000 compounds, of which about 9,900 (2.8%) were called active. The shares of active, inactive and inconclusive entries below differ from those in the screen. Calls follow the shape of the dose curve; as a rule, active = well fitted activation curve with a large enough effect; inconclusive = small, poorly fitted or top-dose-only effect; inactive = no such curve, though single readings can be large or run the other way. No potency is given beside an inconclusive call; the fits are too rough.
Test: A quantitative high throughput screen for small molecules that induce DNA re-replication in MCF 10a normal breast cells. Also: nearly all actives have a fitted effect of over 50% in size. As to activity, positive = re-replication: % of control where 0% means no effect.
Conditions: MCF 10A DNA re-replication, Hoechst nuclear intensity, 48 h; activity, positive = re-replication: at 46.1 µM (top of the series)
Potency is read from the fitted curve at half-maximal effect; tags tell the direction and shape of the fitted curve.

SMILES | Potency | activity, positive = re-replication
N#CC1=C(N)Oc2c(ccc3ccccc23)C1c1cccs1 (stereo not given) | inconclusive [activator, partial curve, poor fit] | 
O=C(Nc1ccc(F)c(Cl)c1)Nc1csc2ccccc12 | inconclusive [activator, partial curve, poor fit] | 
CCc1cccc(CC)c1NC(=O)CSc1nc2ccc(N3C(=O)C4C(C3=O)[C@H]3C=C[C@@H]4C3)cc2s1 (stereo not given in full) |  | inactive: 8.3%
COc1cc(N)c(Cl)cc1C(=O)OCC(=O)NCC1CCCO1 (stereo not given) |  | inactive: 4.01%
Cc1cc(C)c2c(n1)sc1c(N3CCN(C)CC3)ncnc12 | inconclusive [activator, partial curve, poor fit] | 
CCOc1ccc2nc(SCC(=O)c3cccs3)sc2c1 |  | inactive: 11.6%
CCCC/C(O)=C1\C(=O)CC(C)(C)CC1=NCCCCCC(=O)O | inconclusive [activator, partial curve, poor fit] | 
COc1ccc(C2=Nc3nc(-c4ccccc4)cn3C(c3ccc(OC)cc3)C2)cc1 (stereo not given) | inconclusive [activator, full curve, poor fit] | 
CN(Cc1cccnc1)Cc1cn(C)nc1-c1cccc(Cl)c1 |  | inactive: 5.51%
CN(C)CCNC(=O)c1ccc(COc2ccc(Cl)cc2Cl)cc1 | inconclusive [activator, single point] | 
O=c1c2ccccc2cnn1-c1ccc2ccccc2c1 |  | inactive: 1.32%
CCN(Cc1ccccc1OC)CC1CCCN(CCc2cccc(OC)c2)C1 (stereo not given) | inconclusive [activator, partial curve, poor fit] | 
CCCCN(C(=O)c1cc2c(s1)CCCCC2)c1c(N)n(CCC)c(=O)[nH]c1=O |  | inactive: -1.3%
O=C(/C=C/c1cccc(Cl)c1)Nn1c(-c2cccs2)nc2ccccc2c1=O | inconclusive [activator, partial curve, poor fit] | 
CCCN(/C=N/c1sc2c(c1C#N)CCCCC2)CCC | inconclusive [activator, partial curve, poor fit] | 
CCS(=O)(=O)N1CCC(C(=O)Nc2ccc3c(c2)CCC3)CC1 |  | inactive: -16.3%
CCOC(=O)c1c(NC(=O)COc2cccc3c2CCN(C)C3=O)sc2c1CCC2 | inconclusive [activator, partial curve, poor fit] | 
CCOC(=O)Cc1c(C)nc2c(-c3ccccc3)c(C)nn2c1C | inconclusive [activator, single point] | 
CN(C)/N=C/C=C1\CC/C(=C\c2ccc(Br)cc2)C1=O |  | inactive: -1.89%
CCCn1c(CN2CCN(C(=O)OCC)CC2)nc2cc(NC(C)=O)ccc21 | inconclusive [activator, partial curve, poor fit] | 

Reference: PubChem BioAssay AID624296 (National Center for Advancing Translational Sciences (NCATS), 2012)
